Some of the results follow.
Legend:
HSkMC = human skeletal muscle cells; experiment: cytotoxicity call (relative viability < 0.9); settings: 10 µM
HepG2 = experiment: cytotoxicity call (relative viability < 0.9); settings: 10 µM
S. aureus RN4220 = experiment: growth inhibition call (relative growth <= 0.2); settings: 50 µM

Row | Structure (SMILES) | cytotoxicity call (HSkMC) | cytotoxicity call (HepG2) | growth inhibition call (S. aureus RN4220)
1 | COc1ccc(S(=O)(=O)N(C)C[C@H]2OCCCC[C@@H](C)Oc3ccc(NC(=O)Nc4ccc5c(c4)OCO5)cc3C(=O)N([C@@H](C)CO)C[C@@H]2C)cc1 | inactive | active | inactive
2 | C[C@@H]1CN([C@H](C)CO)C(=O)c2cc(NS(=O)(=O)c3ccc(Cl)cc3)ccc2O[C@@H](C)CCCCO[C@H]1CN(C)Cc1ccc(C(F)(F)F)cc1 | active | active | inactive
3 | CC(=O)N(CC(O)CO)c1c(I)c(C(=O)NCCO)c(I)c(C(=O)NCC(O)CO)c1I (configuration not stated) | inactive | inactive | inactive
4 | O=C(O)/C=C/C(=O)NC1CC1 | inactive | inactive | inactive
5 | C[C@@H]1CN([C@@H](C)CO)C(=O)c2cc(NC(=O)C3CCCCC3)ccc2O[C@@H](C)CCCCO[C@@H]1CN(C)Cc1ccc(C(F)(F)F)cc1 | inactive | inactive | inactive
6 | CC(=O)NCCCC[C@@H]1NC(=O)[C@@H]2C[C@H](C(=O)NCCCCCCNC(=O)CS)[C@H](c3ccc(O)cc3)N2C1=O | inactive | inactive | inactive
7 | C[C@@H]1CN([C@H](C)CO)C(=O)c2cc(NC(=O)C3CCCCC3)ccc2O[C@@H](C)CCCCO[C@@H]1CN(C)C(=O)C1CCCCC1 | inactive | inactive | inactive
8 | C[C@H](CO)N1C[C@H](C)[C@@H](CN(C)S(=O)(=O)c2ccccc2)OCCCC[C@H](C)Oc2ccc(NS(C)(=O)=O)cc2C1=O | inactive | inactive | inactive
9 | C[C@H]1CN([C@@H](C)CO)C(=O)Cc2cc(NC(=O)Cn3cnnn3)ccc2O[C@H]1CN(C)C(=O)NC1CCCCC1 | inactive | inactive | inactive

— the antibiotic and cytotoxicity screens of Wong et al. (2023)
